Screen size: about 1,300 compounds; about 30 (2%) were called active. Not shown: some 10% with an inconclusive outcome. Calls come from the whole dose curve; as a rule, active = well fitted inhibition curve with a large enough effect; inconclusive = small, poorly fitted or top-dose-only effect; inactive = flat fitted curve, though single readings scatter. Some of the results follow.
Experiment: qHTS for antagonists of the Thyroid Stimulation Hormone Receptor: Hit Validation in HTRF Activity in a Luteinizing Hormone Receptor Cell Line
Settings: LHR-expressing cell line, cAMP HTRF, antagonist mode; series mostly up to 58 µM; activity change, negative = inhibition: at the top concentration
Source text: The thyroid-stimulating hormone receptor (TSHR) is a member of the 7 trans-membrane-spanning receptor (7TMR) family of cell surface receptors. TSHR-mediated hyperthyroidism is important in thyroid pathology. The development of small molecule antagonists of TSHR may lead to therapeutic approaches for TSHR-mediated hyperthyroidism caused by constitutively activating mutations or stimulating auto-antibodies associated with Graves' disease. Graves' disease is the leading cause of hyperthyroidism and is caused by autoantibodies that stimulate TSHR (TsAbs) causing thyroid growth and unregulated overproduction of thyroid hormones and existing treatments have liabilities (agranulocytosis). In addition, TSHRs are known to be expressed in multiple extrathyroidal tissues including bone, brain, kidney, testis, fat and cells of the immune system but the role of the TSHR in these tissues is not clear. Therefore, TSHR antagonists/inverse agonists could be used as probes of extrathyroidal TSHR function. Finally, TSHR inverse agonists, which are a subclass of antagonists that inhibit agonist-independent (or basal or constitutive) TSHR signaling, could be used to inhibit TSH-independent signaling in patients with recurrent or metastatic thyroid cancer who are receiving thyroid hormone to suppress TSH.
In collaboration between scientist from the NCGC and the NIDDK, a miniaturized HTRF high-throughput screen was developed. It's a cell based assay, where an anti cAMP antibody contains a fluorescent cryptate tag (excitation 337 nm; emission 620 nm) and the acceptor is cAMP-d2 (excitation 620 nm; emission 665 nm). When antibody and cAMP-d2 interact and are excited by a 337 nm light, a FRET occurs resulting in emission at 665 nm. The assay is competition between cAMP-d2 and cAMP (from the cell lysate). The homogeneous protocol allows for one step dispense after stimulation that is automation friendly. In order to confirm specificity of the compounds to the TSHR, a confirmatory assay was conducted on a similar family member, the Luteinizing Hormone (LH) receptor, transfected into a HEK 293 cell line, using an orthogonal detection technology to measure cAMP stimulation: antibody-based Homogeneous Time Resolved Fluorescence (HTRF).
NIH Chemical Genomics Center [NCGC]
NIH Molecular Libraries Probe Centers Network [MLPCN]
Assay Provider: Marvin Gershengorn, NIDDK
Homogeneous Time Resolved Fluorescence (HTRF) cAMP Assay. HEK 293 cells stably transfected with a vector containing the LH receptor and maintained under hygromycin selection were obtained from the laboratory of Dr. Marvin Gershengorn. Compounds were assayed using a HTRF cAMP detection kit (Cisbio) on the LH receptor transfected cell line. Briefly, 750 cells were plated in 2.5 ul/well of complete media (DMEM containing 10 % FCS, and 100 uM RO 20-1724) in 1536 well solid bottom white plates and 23 nl/well compound in DMSO solution or controls was added. Following 30 minute incubation at room temperature, 2.5 ul/well of labeled d2 cAMP and 2.5 ul/well of anti-cAMP antibody (both diluted 1:20 in lysis buffer) were added to each well using a flying reagent dispenser (Aurora Discovery, San Diego) . Plates were measured using the Envision plate reader (PerkinElmer, Boston, MA) with excitation at 330 nm and emissions of 615 nm and 660 nm.
% is set by controls: 0 for no effect and ±100 for the full control effect; potency is the fitted concentration of half-maximal effect.

SMILES | activity change, negative = inhibition | Potency
CS(=O)(=O)c1ccc(C(=O)OCC(=O)NCc2cccs2)cc1[N+](=O)[O-] | inactive: -2.45% | 
COc1cccc(-c2cc(C(=O)Nc3ccn(Cc4ccc(C)cc4)n3)no2)c1 | inactive: -4.1% | 
CCNC(=O)c1ccccc1NC(=O)C1CC(=O)N(C(C)C)C1 (stereo unspecified) | inactive: 1.12% | 
Cc1ccc(N2CCN(S(=O)(=O)c3ccc(F)cc3)CC2)c(C)c1 | inactive: 0.673% | 
Cc1nn(Cc2ccc(Cl)cc2)c(C)c1NC(=O)c1noc2c1CCc1ccccc1-2 | inactive: -4.12% | 
O=C(N=C1SC2CS(=O)(=O)CC2N1c1ccc(F)cc1)C1CC1 (stereo unspecified) | inactive: 1.15% | 
CC1Cc2ccccc2N1C(=O)COC(=O)/C=C/c1ccc(F)cc1 (stereo unspecified) | inactive: -0.809% | 
Cc1nn(-c2nc3ccccc3s2)c(N)c1-c1ccccc1 | inactive: -5.21% | 
CC(=O)N1c2ccc(S(=O)(=O)N3CCC(C(=O)NC(C)c4ccccc4)CC3)cc2CC1C (stereo unspecified) | inactive: 1.03% | 
O=C(NCCS(=O)(=O)N1CCN(c2ccccc2)CC1)C1CC(=O)N(c2ccccc2)C1 (stereo unspecified) | inactive: 1.33% | 
CCSCCc1nnc(NC(=O)Nc2cccc(C(F)(F)F)c2)s1 | inactive: -2.82% | 
C=CCN1C=CC(=C/C=C(/C#N)C(=O)OCC)C=C1 | inactive: -2.97% | 
CC(Oc1ccc(Cl)cc1Cl)C(=O)Nc1cccnc1 (stereo unspecified) | inactive: -1.51% | 
COc1ccc(OCC(=O)NNC(=O)C2CCN(c3ncnc4sc(C)c(C)c34)CC2)cc1 | inactive: 2.1% | 
O=[N+]([O-])c1cc(Br)c(O)c(C=Nc2ccc(N3CCOCC3)cc2)c1 | inactive: -1.06% | 
O=C(Cn1cnc2ccccc21)Nc1ccc2c(c1)OCCCO2 | inactive: 2.29% | 
CC(C)Nc1ncnc2c1nnn2Cc1ccccc1 | inactive: 2.82% | 
Cc1cc(C(=O)COC(=O)c2ccc(O)cc2O)c(C)n1-c1ccccc1 | inactive: -4.24% | 
O=C(CC1C(=O)NCCN1Cc1cccc(F)c1F)NCCCC1CCCC1 (stereo unspecified) | inactive: 3.3% | 
Cc1ccc(NC(=O)CSc2nc3ncc(Br)cc3[nH]2)cc1C | inactive: 3.15% | 
Cc1ccc(CSCCNC(=O)c2ccc(N(C)S(=O)(=O)c3ccccc3)cc2)cc1 | inactive: -2.04% | 
COc1ccc(NC(=O)Cc2nc3ccccc3[nH]2)cc1 | inactive: 2.05% | 
O=S(=O)(Nc1cc(Cl)ccc1-n1cncn1)c1cc(Br)ccc1Br | inactive: -0.878% | 
CCN(c1ccc(OC)cc1)S(=O)(=O)c1cc(-c2cc(C)no2)ccc1C(C)C | inactive: -2.09% | 
N#Cc1nc(Cc2cccc3ccccc23)oc1NCc1ccc2c(c1)OCO2 | inactive: 0.795% | 
CCOC(=O)c1[nH]c2cc(OC)c(OC)cc2c1NC(=O)c1ccc2c(c1)OCO2 | inactive: 0.519% | 

SMILES | activity change, negative = inhibition | Potency
Cc1ccc(-c2csc(N(CCO)CCCn3c(C(F)(F)F)nc4ccccc43)n2)cc1 | inactive: -2.99% | 
NS(=O)(=O)c1ccc(CCNC(=O)c2cc3ccccc3s2)cc1 | inactive: -0.327% | 
CCc1ccccc1NC(=O)CN1CCN(C(=O)CNC(=O)Cc2cccc3ccccc23)CC1 | inactive: 1.56% | 
CCc1nnc(NS(=O)(=O)c2ccc(NC(=O)COc3ccc4ccccc4c3)cc2)s1 | inactive: -0.418% | 
COc1ccc(-n2ncc3c(N(C)C4CCCCC4)ncnc32)cc1 | inactive: -3.61% | 
O=S(=O)(Nc1ccc(O)c(Sc2nc3ccccc3s2)c1)c1cccc2ccccc12 | inactive: 2.55% | 
COc1ccc(S(=O)(=O)NCCc2cn3nc(C)c(C)nc3n2)cc1F | inactive: 0.421% | 
Cc1cccc2c1-c1sc(C(=O)NCCCN3CCCC(C)C3)cc1CO2 (stereo unspecified) | inactive: -1.42% | 
O=C1NC(=S)S/C1=C\c1ccc(SCc2ccccc2)o1 | inactive: 3.27% | 
Cc1ccc(C(=O)Nc2cccc([N+](=O)[O-])c2)cc1S(=O)(=O)Nc1ccc(NC(=O)c2ccccc2)cc1 | inactive: -2.14% | 
COc1cc(/C=C(\C#N)c2nc3ccccc3s2)cc([N+](=O)[O-])c1O | inactive: -1.29% | 
CCn1nc(C)cc1-c1nnc(Sc2ncc([N+](=O)[O-])s2)n1C |  | active: 37.9 µM
CCOCCCNC(=O)C(NC(=O)c1ccc(=O)[nH]c1)c1ccc(Cl)cc1 (stereo unspecified) | inactive: 1.5% | 
CC(=O)N(C)c1ccc(N=NC2C(=O)N(C(N)=S)N=C2C)cc1 (stereo unspecified) | inactive: 0.985% | 
CN(CC(=O)Nc1ccccc1C(F)(F)F)Cc1c(O)ccc2ccccc12 | inactive: 3.47% | 
COc1ccc(-c2csc(NC(=O)c3ccccc3NS(=O)(=O)c3ccc(F)c(F)c3)n2)cc1 | inactive: -3.22% | 
Nc1nc(SCC(=O)C23CC4CC(CC(C4)C2)C3)n[nH]1 | inactive: 1.45% | 
COc1cc(C(=S)N2CCCC2)ccc1OCc1ccc(C)cc1 | inactive: 0.206% | 
O=C(Nc1ncc(S(=O)(=O)c2ccc([N+](=O)[O-])cc2)s1)c1cccc2ccccc12 | inactive: 0.232% | 
Cc1ccccc1NC(=O)c1cc2ccccn2n1 | inactive: 2.78% | 
Cc1ccc(-c2nc3ccc(C(=O)O)cc3nc2-c2ccc(C)cc2)cc1 | inactive: -1.76% | 
COc1cccc(CNC(=O)CCCC(=O)NC(C)CCc2ccccc2)c1 (stereo unspecified) | inactive: 1.74% | 
O=C(NCCC1=CCCCC1)C(=O)NCC1OCCCN1S(=O)(=O)c1ccccc1 (stereo unspecified) | inactive: 3.6% | 
COc1ccc(OC)c(C2=NOC(C(=O)NCC3CCCO3)C2)c1 (stereo unspecified) | inactive: 1.13% | 
CN(C(=O)CN1C(=O)/C(=C/c2ccccc2Cl)SC1=S)C1CCS(=O)(=O)C1 (stereo unspecified) | inactive: 1.76% | 

From PubChem BioAssay AID602293 (National Center for Advancing Translational Sciences (NCATS), 2012)
